Hit rate of the full screen: of about 45,000 compounds, about 65 (0.1%) were called active. The call rests on the fitted dose curve; in most records, active means well fitted activation curve with a large enough effect; inconclusive means small, poorly fitted or top-dose-only effect; inactive means no such curve, though single readings can be large or run the other way. The list shows a part of the results.
The molecules below were run against Galactocerebrosidase (Homo sapiens) (UniProt P54803) (assay: A Novel Cell-Based Assay to Identify Small Molecules for B -Galactocerebrosidase). Conditions: 145M-Twi-hGALC-G270D cells (Twitcher mouse brain line with human GALC G270D), HMU-beta-Gal fluorescence, 48 h; series mostly up to 57.5 µM; activation: at the top concentration.
Chain of UniProt P54803 (P54803 whole entry, looked up): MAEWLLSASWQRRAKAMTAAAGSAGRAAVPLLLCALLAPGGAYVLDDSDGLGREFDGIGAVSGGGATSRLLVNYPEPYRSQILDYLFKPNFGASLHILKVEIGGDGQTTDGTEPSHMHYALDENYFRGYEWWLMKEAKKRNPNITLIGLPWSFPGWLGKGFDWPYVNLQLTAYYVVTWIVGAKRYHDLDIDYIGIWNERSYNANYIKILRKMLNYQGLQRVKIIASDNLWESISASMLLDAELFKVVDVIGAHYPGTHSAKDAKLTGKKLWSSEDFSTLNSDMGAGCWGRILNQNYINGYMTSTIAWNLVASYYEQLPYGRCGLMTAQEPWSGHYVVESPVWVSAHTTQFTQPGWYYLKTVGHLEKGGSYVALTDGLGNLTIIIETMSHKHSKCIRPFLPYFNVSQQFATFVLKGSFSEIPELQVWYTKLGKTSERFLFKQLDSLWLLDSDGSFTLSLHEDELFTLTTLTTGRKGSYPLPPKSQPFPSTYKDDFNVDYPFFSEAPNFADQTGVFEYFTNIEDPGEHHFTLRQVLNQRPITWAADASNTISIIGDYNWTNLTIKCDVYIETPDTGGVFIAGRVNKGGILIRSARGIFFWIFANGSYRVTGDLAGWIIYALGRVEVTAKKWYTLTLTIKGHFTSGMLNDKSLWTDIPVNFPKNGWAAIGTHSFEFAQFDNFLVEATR
Method in brief: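 Brain-derived Twitcher mouse 145M-Twi cells stably expressing human GALC-G270D or wild-type GALC, treated live, then residual GALC activity read by fluorescence of HMU-b-Gal substrate (0.1 mM final) in citrate-phosphate buffer pH 5.2 with sodium taurocholate. Signal increase indicates enhancement.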
Further: nearly all actives have a fitted effect of over 65% in size.
Potency means the concentration at half of the fitted maximal effect.
Wherever activation is given: 0% is about no effect.

| Structure (SMILES) | activation | Potency |
| --- | --- | --- |
| COc1ccc(S(=O)(=O)NCC(c2ccco2)S(=O)(=O)c2cccs2)cc1OC (stereo unspecified) | inactive: -18.7% |  |
| CCOc1cc(-c2cc(C(=O)O)c3c(-c4ccccc4)[nH]nc3n2)ccc1O | inactive: -6.9% |  |
| COc1cc(C(=O)OCc2cc(=O)n3ccsc3n2)cc(OC)c1OC | inactive: -9.54% |  |
| CCCCCCCCCCCCCCCC(=O)OC(C)C | inactive: -19.7% |  |
| CCN(C(=O)c1nn(C)c2c1CSc1ccccc1-2)c1cccc(C)c1 | inactive: -7.65% |  |
| COc1ccc(NC(=O)Cn2nc(C)c3c(C)n(-c4ccccc4)nc3c2=O)cc1OC | inactive: 9.41% |  |
| CCC1=Nc2cc(C(=O)N3CCC(C)CC3)ccc2Sc2ccc(C)cc21 | inactive: -12.5% |  |
| Cc1ccc(C)c(NC(=O)C2CCCN2S(=O)(=O)c2ccc3c(c2)CCCC(=O)N3)c1 (stereo unspecified) | inactive: -30.6% |  |
| COc1ccc(-c2noc(CNC(=O)c3ccc(OC)cc3OC)n2)cc1 | inactive: -2.15% |  |
| CCCC(=O)OCc1cnc(C)c2oc(=O)c(C(=O)Nc3ccc(F)cc3C)cc12 | inactive: -11.5% |  |
| Cc1cccc(CNC(=O)C2CCN(S(=O)(=O)c3cccc4nonc34)CC2)c1 | inactive: -6.85% |  |
| CCOC(=O)c1c(NC(=O)COc2ccc(OC)cc2)sc(C(=O)N(CC)CC)c1C | inactive: -17.5% |  |
| CCCCN(CC)CCNC(=O)c1nn(-c2ccc(OC)cc2)c(=O)c2c1c1ccccc1n2C | inactive: -11.4% |  |
| COc1cccc(-c2noc(COc3cccc(C)c3C)n2)c1 | inactive: -12.3% |  |
| CCOc1ccc(CCNC(=O)C2CC(=O)N(CCc3ccc(OC)c(OC)c3)C2)cc1OCC (stereo unspecified) | inactive: -21.3% |  |
| CCN(CC)CCCNC(=O)c1ccc2c(c1)NC(=O)C(CS(=O)(=O)Cc1ccc(F)cc1Cl)N2 (stereo unspecified) | inactive: -5.65% |  |
| CCOC(=O)c1cccc(NC(=O)Cn2cnc3nc4c(cc3c2=O)CCCC4)c1 | inactive: -19.8% |  |
| COc1ccc(N2CC(c3nc(-c4ccccc4C)no3)CC2=O)cc1Cl (stereo unspecified) | inactive: -19% |  |
| CCNC(=O)NCCCOc1cccc(CN2CCCCC2)c1 | inactive: 5.43% |  |
| CCc1ccc(NS(=O)(=O)c2ccc3[nH]cc(C(=O)NCCc4ccccc4)c(=O)c3c2)cc1 | inactive: 5.73% |  |
| COCCNC(=O)c1sc2nc3n(c(=O)c2c1C)CCC3 | inactive: -21.2% |  |
| CN1CCN(c2ccc(-c3nc(-c4ccccc4)no3)cc2[N+](=O)[O-])CC1 | inactive: -9.77% |  |
| Cc1cccc(CCNC(=O)CCc2c(C)nc3c(-c4ccc(F)cc4)c(C)nn3c2C)c1 | inactive: -16.6% |  |
| COC(=O)c1ccc(NC(=O)C(c2ccccc2)N2Cc3ccccc3C2=O)cc1 (stereo unspecified) | inactive: -14.7% |  |

| Structure (SMILES) | activation | Potency |
| --- | --- | --- |
| Cc1nc(-c2ccc(Cl)cc2)sc1CCNC(=O)C(=O)Nc1ccccc1C#N | inactive: -8.15% |  |
| Cc1ccc(-c2onc(C)c2C)cc1S(=O)(=O)N1CCc2ccccc21 | inactive: 15.7% |  |
| COc1ccc(NC(=O)Cn2c(SCc3c(F)cccc3Cl)nc3ccncc32)cc1OC | inactive: -9.14% |  |
| CCCc1ccc(OC(=O)c2sc3ncn(Cc4cccc(F)c4)c(=O)c3c2C)cc1 | inactive: -7.76% |  |
| CCCCN(C(=O)Nc1ccc(OCC)cc1)C1CCN(C(C)=O)CC1 | inactive: -3.89% |  |
| COCCn1c(SCC(=O)Nc2ccc(Br)cc2)nc2c([nH]c3ccccc32)c1=O | inactive: -11.5% |  |
| Cc1cc(C)cc(NC(=O)C2CCCN(c3nnc(-n4c(C)ccc4C)s3)C2)c1 (stereo unspecified) | inactive: -6.74% |  |
| COc1ccc(N2CCN(C(=O)c3cc4c(s3)-c3c(C)cccc3OC4)CC2)cc1 | inactive: -24.6% |  |
| COc1ccccc1CSc1nc2n(n1)C(c1ccccc1)C(C(=O)Nc1ccc(C)cc1)=C(C)N2 (stereo unspecified) | inactive: -12.1% |  |
| CCC(Sc1nc2n[nH]c(C)c2c(=N)n1-c1ccc(Br)cc1)C(=O)N(CC)CC (stereo unspecified) | inactive: -30.9% |  |
| CCOC(=O)c1c(S(=O)(=O)N2CCN(c3cc(Cl)ccc3C)CC2)c(C)n(C)c1C | inactive: -22% |  |
| Cc1ccc(NC(=O)C2CCCN(S(=O)(=O)c3ccc(C)cc3)C2)cc1 (stereo unspecified) | inactive: -9.61% |  |
| CCN(CC)c1ccc(NC(=O)C2CCCN(S(=O)(=O)c3ccc4c(c3)oc(=O)n4C)C2)c(C)c1 (stereo unspecified) | inactive: -1.62% |  |
| COC(=O)/C=C(/C)N | inactive: -6.02% |  |
| Cc1ccc(NC(=O)Cn2nc(-c3ccc(Cl)cc3)c3ccccc3c2=O)cc1 | inactive: -10.9% |  |
| COc1ccc(NC(=O)Cn2ncc3c4ccccc4n(Cc4ccccc4)c3c2=O)cc1OC | inactive: -8.54% |  |
| COc1cc(NS(=O)(=O)c2ccc3c(c2)OCC(C(=O)N2CCCC2)O3)cc(OC)c1 (stereo unspecified) | inactive: -13.2% |  |
| COc1ccccc1-c1ncnn1-c1sc2c(c1C#N)CCCCC2 | inactive: -25.4% |  |
| O=c1oc2c(F)cc(F)cc2cc1S(=O)(=O)c1ccc(F)cc1 | inactive: -16.2% |  |
| Cc1ccc(Cc2nc3ccccc3nc2SCC(=O)N2CCCCC2)cc1 | inactive: -10.5% |  |
| CCOc1ccccc1NC(=O)c1c(NCc2ccc(C)o2)sc2c1CCCCC2 | inactive: -18.2% |  |
| Cc1nc(C)c(CCNS(=O)(=O)c2ccc(C)c(C)c2)s1 | inactive: -39.4% |  |
| CCOc1ccc(N(CC)C(=O)c2cc3c(=O)oc4ccccc4c3s2)cc1 | inactive: -4.56% |  |
| CCOc1ccc(CN2CCN(S(=O)(=O)c3ccc(Cl)cc3)CC2)cc1 | inactive: -7.05% |  |

| Structure (SMILES) | activation | Potency |
| --- | --- | --- |
| CCOc1ccc(-c2nonc2NC(=O)c2oc3ccc(Cl)cc3c2C)cc1 | inactive: -7.11% |  |
| Cc1cccc(NC(=O)C(=O)NCC(c2cccnc2)N2CCc3ccccc32)c1C (stereo unspecified) | inactive: -14.4% |  |
| CCOC(=O)c1cc(=O)c2c(OCC(COc3cccc4oc(C(=O)OCC)cc(=O)c34)OC(=O)[C@@H](N)CCCCN)cccc2o1 | inactive: -5% |  |
| Cc1oc(-c2ccccc2F)nc1CN1CCC(C(=O)NCCc2ccc(Cl)cc2)CC1 | inactive: -22.7% |  |
| O=C(Cn1cc(S(=O)(=O)c2ccc(F)cc2)c(=O)c2cc3c(cc21)OCO3)Nc1ccccc1 | inactive: -6.31% |  |
| Cc1ccn2c(=O)c(C(=O)Nc3ccc(F)c(C(F)(F)F)c3)cnc2c1 | inactive: -7.78% |  |
| CC1=C(C(=O)Nc2ccc(C)cc2C)C(CC(C)C)n2nc(SCc3ccccc3C)nc2N1 (stereo unspecified) | inactive: -21.6% |  |
| COC(=O)c1ccccc1NC(=O)CCCn1nc(C)c2sc3ccccc3c2c1=O | inactive: -7.92% |  |
| COc1cccc(NC(=O)c2oc3ccccc3c2NC(=O)COc2ccccc2C)c1 | inactive: 8.5% |  |
| COc1ccc(-c2nnn3c2nc(NCc2ccccc2)c2ccccc23)cc1 | inactive: -9.88% |  |
| Cc1cc(C)n2nc(SCC(=O)Nc3ccc(O)cc3)nc2n1 | inactive: -16.4% |  |
| Cc1ccc(NC(=O)CSc2ncccc2C(=O)Oc2ccccc2Cl)cc1Cl | inactive: -10.2% |  |
| COc1ccc2[nH]cc(CCNC(=O)Nc3c(C)cccc3C)c2c1 | inactive: -21.7% |  |
| CCc1cccc(CC)c1NC(=O)CCS(=O)(=O)c1ccc(Br)cc1 | inactive: 4.39% |  |
| O=c1c2sc3ccccc3c2n(Cc2ccc(F)cc2)c(=O)n1Cc1ccccc1 | inactive: 5.72% |  |
| COc1ccc(-c2ccc(NS(=O)(=O)c3ccccc3)cc2)nn1 | inactive: 2.98% |  |
| CCOc1ccc(-c2cc(C(=O)NCc3ccc(OCC)c(OC)c3)[nH]n2)cc1 | inactive: -13.6% |  |
| CCc1ccc(NC(=O)Cn2c(=O)n(CCCC(=O)NCc3ccccc3OC)c(=O)c3ccccc32)cc1 | inactive: -2.17% |  |
| COc1cc(-c2nc(Cn3nnc(C(=O)Nc4ccccc4C)c3C)c(C)o2)cc(OC)c1OC | inactive: -14.6% |  |
| CCOC(=O)c1cc(-c2ccccc2)n(CCC(=O)Nc2ccc(OC)c(Cl)c2)c1C | inactive: -24.3% |  |
| COc1cc(C)ccc1OCCSc1nc2ccc(NC(=O)c3ccc4c(c3)OCO4)cc2s1 | inactive: -6.58% |  |
| Cc1ccccc1-c1nc2c(c(SCc3cccc(Cl)c3)n1)Cc1c(CO)cnc(C)c1O2 | inactive: -8.07% |  |
| Cc1cc(NC(=O)CN(C)S(=O)(=O)c2ccc3c(c2)CCCC(=O)N3)ccc1Br | inactive: -35.4% |  |
| Clc1cccc(N2CCN(c3nc4ccccc4c4nc(-c5cccnc5)nn34)CC2)c1 | inactive: -18.6% |  |

| Structure (SMILES) | activation | Potency |
| --- | --- | --- |
| CC(=O)N1c2ccc(S(=O)(=O)N3CCCCCC3)cc2CC1C(=O)NCc1cccc(F)c1 (stereo unspecified) | inactive: -22.1% |  |
| CNC1CCCN(c2c(F)cc3c(=O)c(C(=O)O)cn(C4CC4)c3c2OC)C1 (stereo unspecified) | inactive: -13.4% |  |
| COc1ccc(C)cc1NC(=O)c1ccc2c(c1)N(Cc1cccc(Cl)c1)C(=O)c1ccccc1S2=O (stereo unspecified) | inactive: 7.09% |  |
| Cc1ccc(C)c(NC(=O)c2ccc(=O)n(Cc3ccc(F)cc3)c2)c1 | inactive: -9.47% |  |
| CCOC(=O)c1noc2ncn(CC(=O)Nc3ccc(OC)c(Cl)c3)c(=O)c12 | inactive: -15.9% |  |
| CCOc1ccc(CC(=O)NCCS(=O)(=O)N2CCN(c3ccccc3OC)CC2)cc1 | inactive: -19.3% |  |
| CCCCC(=O)Nc1cc(-c2nc3ccccc3o2)ccc1OC | inactive: 6.12% |  |
| CCS(=O)(=O)N1CCc2cc(C(=O)N3CCN(c4ccccc4)CC3)ccc21 | inactive: -21.5% |  |
| Cc1ccc(S(=O)(=O)c2nc(-c3cccs3)oc2SC(C)c2ccccc2)cc1 (stereo unspecified) | inactive: -11.7% |  |
| CC(C)CCNC(=O)c1ccc(Cn2c(=O)c3cccn3c3cccnc32)cc1 | inactive: -2.87% |  |
| Cc1ccccc1Nc1c(-c2cccc(O)c2)nc2ccc(Br)cn12 | inactive: -28.3% |  |
| O=S(=O)(NCc1ccc(F)cc1)c1ccc2[nH]c3c(c2c1)CCCCC3 | inactive: -8.18% |  |
| CCOC(=O)c1nc(Nc2ccc(OC)cc2)c2ccccc2n1 | inactive: -6.65% |  |
| Cc1sc(C2C(C#N)=C(N)N(c3cccc(Cl)c3)C3=C2C(=O)CCC3)cc1CN1CCOCC1 (stereo unspecified) | inactive: -14% |  |
| Cc1ccc(CNC(=O)c2cc(S(=O)(=O)N3CCCC(C)C3)cn2C)cc1 (stereo unspecified) | inactive: -26.3% |  |
| Cc1ccc(-c2nn(-c3cccc([N+](=O)[O-])c3)c3c2cnc2ccc(F)cc23)cc1 | inactive: 0.501% |  |
| COc1cc(OC)c(NC(=O)CSC2=Nc3ccccc3N=C(c3ccc(F)cc3)C2)cc1Cl | inactive: -3.83% |  |
| CCOc1ccc(CNC(=O)c2ccc3c(c2)sc2nc(-c4ccc(OC)cc4)cn23)cc1 | inactive: -18.3% |  |
| Cc1cc2c(n1-c1ccc(C(=O)NCC(C)c3ccccc3)cc1)CCCC2 (stereo unspecified) | inactive: -21.8% |  |
| Cc1cccc(Nc2nc(Nc3cccc(C)c3)nc(N3CCOCC3)n2)c1 | inactive: -22.1% |  |
| Cc1ccc2oc(-c3ccc(C)c(NC(=O)c4ccc5c(c4)OCCO5)c3)nc2c1 | inactive: -24.3% |  |
| CCOc1cccc(C(=O)Nc2ccc3oc(-c4ccc(C(C)(C)C)cc4)nc3c2)c1 | inactive: -7.11% |  |
| COc1ccc(NC(=O)Cn2c(=O)n(-c3cccc(C)c3)c(=O)c3c2c2cc(C)ccc2n3C)cc1OC | inactive: -16.7% |  |
| CC(CCO)Nc1nc2c(c(=O)n(C)c(=O)n2C)n1Cc1ccc(Br)cc1 (stereo unspecified) |  | active: 22.4 µM |

Source: PubChem BioAssay AID1159614 (National Center for Advancing Translational Sciences (NCATS), 2016)
